The source of these data is PubChem BioAssay AID463173 (ICCB-Longwood Screening Facility, Harvard Medical School, 2010).

In all, about 52,000 compounds went through this assay and about 1,700 (3.3%) were called active. Cut-off read from the data, not from the text of the source: active = survival mostly below about 52% (no sharp cut-off); inactive = mostly above about 56%. The list shows a part of the results.

The subject of this test is Wild type. Kind of test: S. aureus survival, RN4220 and DeltatarO strains – OD600, teichoic acid synthesis inhibitors, primary screen (AID 463173). The note with it: S. aureus RN4220 wild type/DeltatarO growth, OD600, 18 h, active compounds read low, screened at 18.75 µg/mL (by protocol).
For the compound `COc1ccc(C(=O)N2c3ccc(C)cc3C(C)(c3ccccc3)CC2(C)C)cc1` (centres undefined), the survival is inactive: 45%.
As for `Cn1c(=O)[nH]c(=O)c2c1nc(CN1CCN(c3cccc(Cl)c3)CC1)n2Cc1ccccc1`, the figure is inactive: 110%; as for `O=C(NCCCc1nc2ccccc2n1Cc1ccc(Cl)cc1Cl)c1ccco1`, inactive: 67%; as for `CCN(CC)CCCNC(=O)CN1N=C(c2ccc(OC)cc2)CCC1=O`, inactive: 119%.
To `COc1ccc(CNC(=O)CCCn2c(=O)c3cccn3c3cccnc32)cc1` belongs inactive: 115%.
With `COc1ccccc1CN1CCC(CNC(=O)c2cnn(-c3ccc(Cl)cc3)c2C2CCN(C(=O)OC(C)(C)C)CC2)CC1`, the survival is inactive: 132%.
As for `CCCCc1nc2ccccc2c(C(=O)O)c1C`, the figure is inactive: 106%; as for `CC(C)c1ccc(OCC(O)CN2CCN(c3ccc(F)cc3)CC2)cc1` (centres undefined), inactive: 73%; as for `CCOC(=O)c1c(-c2ccccc2)oc2cc(Br)c(OCC(N)=O)cc12`, inactive: 107%.
Regarding `O=S(=O)(c1cccc(F)c1)N1CCC(Oc2ccc(-n3cnnn3)cc2)CC1`, the survival is inactive: 84%.
As for `CCOCCCNC(=O)c1c(NC(=O)Cc2coc3ccc(C)cc23)sc2c1CCC2`, the figure is inactive: 109%.
For `CCc1ccc(S(=O)(=O)c2c(C(=O)c3ccccc3)cnc3ccc(CC)cc23)cc1`, the survival is inactive: 79%.
To `COc1cccc(-c2nnc(SCC(=O)N3c4ccccc4Sc4ccccc43)o2)c1` belongs active: 11%.
To `Cc1ccccc1NC(=O)c1ccc(Cl)c(S(=O)(=O)N2CCCCCC2)c1` belongs inactive: 122%; to `CCCCNS(=O)(=O)c1ccc2nc(-c3cccnc3)cc(C(=O)NCCOC)c2c1`, inactive: 45%; to `CC(=O)Oc1ccccc1C(=O)N1CCN(c2ccccc2F)CC1`, inactive: 96%.
To `COc1ccc(NC(=O)CSc2nccn2Cc2ccco2)c(OC)c1` belongs inactive: 127%; to `CCC1CCCCN1C(=O)Cn1c(=O)cc(C(F)(F)F)c2c(C)nn(C)c21` (centres undefined), inactive: 68%; to `COc1ccc(OC)c(NC(=O)Cc2c(C(=O)O)n(C)c3ccc(C)cc23)c1`, inactive: 88%.
Take `O=C1c2[nH]nc(-c3ccccc3O)c2C(c2ccc(F)cc2)N1CCO` (centres undefined): the survival was inactive: 81%.
As for `Cc1cc(=O)[nH]c2c1c(=O)[nH]n2C1CC(C)N(C)CC1C` (centres undefined), the survival is inactive: 104%.
To `COC(=O)c1cnn(-c2ccc(C(=O)Nc3cc(OC)c(OC)c(OC)c3)cc2)c1N` belongs inactive: 90%; to `COc1ccc(-c2nc(SCC(=O)N3CCCCC3C)n[nH]2)cc1` (centres undefined), inactive: 134%.
As for `CCOC(=O)c1cc(-c2ccc(OC)cc2)n(CCC(=O)Nc2nc3ccc(OCC)cc3s2)c1C`, the figure is inactive: 79%; as for `CCOC(=O)c1c(C)sc(-c2c(-c3ccc(OC)c(F)c3)[nH]c3[nH]c(=O)[nH]c(=O)c23)c1O`, inactive: 111%; as for `CC1=C(C(=O)Nc2ccc(Cl)cc2)C(c2ccc(C(F)(F)F)cc2)n2nnnc2N1` (centres undefined), inactive: 68%.
Turning to `CCc1cccc(C)c1Nc1c(-c2cccc(O)c2)nc2nc(C)cc(C)n12`, the survival was inactive: 70%.
With `CCc1ccc(-n2c(=O)c3c(C)c(C(=O)N(C)C)sc3n(Cc3ccccc3C#N)c2=O)cc1`, the survival was inactive: 82%.
To `Cc1ccc(CN(Cc2ccco2)C(=O)c2ccc(Cl)cc2)o1` belongs inactive: 109%; to `CC(NC(=O)c1ccco1)c1ccccc1` (centres undefined), inactive: 112%; to `Cc1cccc(NC(=O)CSc2nc3ccc(NC(=O)COc4ccccc4F)cc3s2)c1`, inactive: 106%.
In the case of `Cc1ccc(NC(=O)C2CCCN2S(=O)(=O)c2ccc3c(c2)CCCC(=O)N3)cc1Cl` (centres undefined), the survival was inactive: 113%.
To `CC(C(=O)N1CCCCC1)N1CCC(N2CCCCC2)CC1` (centres undefined) belongs inactive: 93%; to `COc1ccc(NC(=O)c2c(NC(=O)Cc3ccccc3)sc3c2CCCC3)cc1`, inactive: 126%; to `O=C(CSc1ccc2nc(-c3ccccc3)cn2n1)Nc1cccc(F)c1`, inactive: 72%.
To `COc1ccc(NC(=O)Cn2c(=O)n(Cc3ccc(C(=O)NCc4ccccc4Cl)cc3)c(=O)c3ccccc32)cc1` belongs inactive: 73%; to `COc1ccc(Cn2nnc3c(=O)[nH]c(C4CCN(C(=O)c5ccc(C)cc5)CC4)nc32)cc1OC`, inactive: 53%; to `Cc1cc(F)ccc1NC(=O)Cn1c(=O)ccc2cc(S(=O)(=O)N3CCC(C)CC3)ccc21`, inactive: 73%.
As for `CCN(CC)CCCNC(=O)CN1N=C(c2ccccc2)CCC1=O`, the figure is inactive: 76%; as for `Cc1nn(C)c2c1c(C(F)(F)F)cc(=O)n2C(C)C(=O)NCc1ccccc1Cl` (centres undefined), inactive: 135%.
For the compound `Cc1nn(CC(=O)N2CCN(c3cccc(C(F)(F)F)c3)CC2)c(=O)c2cccn12`, the survival was inactive: 95%.
`COC(=O)c1sccc1S(=O)(=O)N(CC(=O)NCc1ccc(F)cc1)c1ccc(Cl)cc1`: the survival was inactive: 72%.
To `COc1ccc(CNC(=O)c2ccc(CNS(=O)(=O)c3ccc(F)cc3)cc2)cc1` belongs inactive: 105%.
To `Cc1ccc(NC(=O)Cn2nnc(C(=O)NCc3cccs3)c2N)cc1Cl` belongs inactive: 81%; to `Cc1cc(C)c2c(c1)c1n[nH]c(=S)nc1n2C`, inactive: 82%; to `Cc1oc(-c2cccc(Cl)c2)nc1Cn1c(SCc2ccccc2F)nc2ccncc21`, inactive: 68%.
As for `Cc1sc(NC(=O)c2ccccc2F)c(C(=O)O)c1C`, the figure is inactive: 97%; as for `Cc1cc(C)cc(NC(=O)Cn2c(C(F)(F)F)nc3ccccc32)c1`, inactive: 83%.
Turning to `CCCCNC(=O)C1CCN(Cc2ccccc2OCC)CC1`, the survival is inactive: 118%.
To `COc1ccccc1NC(=O)CSC1=Nc2ccccc2C2=NC(CC(=O)NCc3cccs3)C(=O)N12` (centres undefined) belongs inactive: 92%; to `COc1ccc(CCNC(=O)c2ccc3c(c2)N(Cc2ccccc2C)C(=O)c2ccccc2S3)cc1OC`, inactive: 128%.
As for `Cc1ccccc1NC(=O)CSc1nnc(-c2cccs2)o1`, the figure is inactive: 91%; as for `CCc1ccc2oc(-c3cc(NC(=O)c4cc([N+](=O)[O-])ccc4N4CCOCC4)ccc3Cl)nc2c1`, inactive: 74%.
As for `Cc1ccc(Cl)cc1N1CCN(C(=O)c2cc3c(-c4ccccc4F)nn(C)c3s2)CC1`, the survival was inactive: 64%.
To `Fc1ccc(-c2cn3cc(Cc4ccccc4)sc3n2)cc1` belongs inactive: 95%.
To `COc1ccc(NC(=O)CSc2nc(-c3ccco3)cc(C(F)(F)F)n2)cc1Cl` belongs inactive: 62%.
Consider `CCCN(CCC)C(=O)Cn1c(=O)n(-c2ccc(Cl)cc2)c(=O)c2c3c(sc21)CCCC3`, for which the survival is inactive: 89%.
With `COc1ccc(CNC(=O)c2cnc(N3CCOCC3)c3ccccc23)cc1`, the survival is inactive: 84%.
`N#Cc1ccccc1NC(=O)CSc1nnc(N)s1`: the survival is inactive: 86%.
As for `CCCCS(=O)(=O)c1nc(-c2ccc(Br)cc2)cc(-c2ccccc2)c1C#N`, the survival is inactive: 131%.
As for `COc1ccc(-n2ncc(C(=O)N3CCOCC3)c2C2CCN(C(=O)OC(C)(C)C)CC2)cc1`, the figure is inactive: 65%; as for `Cc1cccc(NC(=O)CCc2c(C)nc3c(c(C)nn3C(C)(C)C)c2C)c1C`, inactive: 71%.
As for `O=C1COc2ccc(-c3cc(-c4ccccc4)c4c(n3)-c3cc(Cl)ccc3OC4)cc2N1`, the figure is inactive: 66%; as for `CCN(C(=O)c1cn(CC)c(=O)c2cc(OC)c(OC)cc12)c1ccc(C)c(C)c1`, inactive: 146%; as for `Cc1ccc(N2CCN(S(=O)(=O)c3ccc4[nH]c5c(c4c3)CCCCC5)CC2)c(C)c1`, inactive: 135%.
To `O=C(Nc1cccc(F)c1F)C1CCN(c2ncccn2)CC1` belongs inactive: 89%; to `CC(=O)N1N=C(N)SC1c1ccccc1` (centres undefined), inactive: 104%.
Take `COc1ccc(-c2nc3c(c(SCC(=O)N4CCCCC4)n2)Cc2c(CO)cnc(C)c2O3)cc1`: the survival was inactive: 101%.
As for `COC(=O)c1cc(NC(=O)c2ccc3c(c2)NC(=O)c2ccccc2S3)cc(C(=O)OC)c1`, the figure is inactive: 100%; as for `CSc1cccc(NC(=O)Cn2ncn3c(cc4ccccc43)c2=O)c1`, inactive: 72%.
Take `CCSc1nn(CC(=O)Nc2ccc(C(=O)OC)cc2)c(N)c1S(=O)(=O)c1ccc(C)cc1`: the survival is inactive: 32%.
In the case of `COc1cccc(-n2nnc(-c3nc(-c4ccccc4F)no3)c2C)c1`, the survival was inactive: 82%.
With `O=C(Nc1ccc(F)cc1)N1CCN(C(=O)c2nsc3ccccc23)CC1`, the survival is active: 14%.
For `COC(=O)c1cc2occc2n1CC(=O)Nc1ccc(C(C)C)cc1`, the survival was inactive: 79%.
To `Cc1cccc(N2CCN(C(c3ccccc3)c3nnc(-c4ccccc4Cl)o3)CC2)c1C` (centres undefined) belongs inactive: 52%.
To `COc1ccc(OC)c(CNC(=O)CN2CC(C)Sc3ccccc32)c1` (centres undefined) belongs inactive: 92%; to `CCOc1ccccc1NC(=O)C(c1ccccc1)N1Cc2ccccc2C1=O` (centres undefined), inactive: 80%; to `Fc1ccccc1N1CCN(c2ncc3c(n2)CCN(Cc2cc(Br)cs2)C3)CC1`, inactive: 75%.
For the compound `Cn1nnc2c(N3CCN(c4cccc(C(F)(F)F)c4)CC3)ncnc21`, the survival is inactive: 101%.
To `CCc1noc(-c2ccc(N3CCCCC3)c([N+](=O)[O-])c2)n1` belongs inactive: 75%; to `Cc1cc(OCC(=O)NCC2(N3CCOCC3)CCCCC2)ccc1Cl`, inactive: 93%.
To `C=CCNC(=O)c1cc2sccc2n1Cc1ccccc1` belongs inactive: 121%.
Regarding `CC(Sc1nnc(-c2ccncc2)o1)C(N)=O` (centres undefined), the survival was inactive: 99%.
To `COc1ccccc1CN1CCC(CNC(=O)c2cnn(-c3ccc(C)c(C)c3)c2C2CCN(C(=O)OC(C)(C)C)CC2)CC1` belongs inactive: 65%; to `CCc1cccc(NC(=O)C(CC(C)C)NS(=O)(=O)c2ccc3c(c2)oc(=O)n3C)c1` (centres undefined), inactive: 140%.
`CCC(=O)N1CCc2cc(CNC(=O)Nc3cc(Cl)ccc3C(=O)OC)ccc21`: the survival was inactive: 91%.
As for `Brc1ccc2nc(-c3ccccc3)c(Nc3ccc4c(c3)OCO4)n2c1`, the figure is inactive: 105%; as for `O=C(c1cc2sccc2n1Cc1ccccc1)N1CCCCC1`, inactive: 139%.
To `CCCN(CCC)CCNC(=O)c1cc(-c2ccc(Br)s2)nc2ccccc12` belongs inactive: 80%.
